Test results from PubChem BioAssay AID1745853 (National Center for Advancing Translational Sciences (NCATS), 2022).
The list shows a part of the results. The main result of the screen is listed elsewhere. These columns were measured beside it and carry no call.

Legend:
Assay in all cases: Primary Screen for Target Class Profiling of Small Molecule Inhibitors of Methyltransferases
[1] = molecular target: Guanidinoacetate N-methyltransferase (Homo sapiens) (UniProt Q14353); conditions: purified enzyme, MTase-Glo SAH luminescence; measured here: GAMT inhibition; at 40 µM; stronger effect = lower value
In short: (§1)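 Each enzyme was assayed with SAM and its substrate. SAH formation detected by MTase-Glo luminescence; single-point 40 uM screen[…].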

[2] = molecular target: Nicotinamide N-methyltransferase (Homo sapiens) (UniProt P40261); conditions: purified enzyme, MTase-Glo SAH luminescence; measured here: NNMT inhibition; at 40 µM; stronger effect = lower value
In short: as §1

[3] = molecular target: Phenylethanolamine N-methyltransferase (Homo sapiens) (UniProt P11086); conditions: purified enzyme, MTase-Glo SAH luminescence; measured here: PNMT inhibition; at 40 µM; stronger effect = lower value
In short: as §1

[4] = molecular target: Glycine N-methyltransferase (Homo sapiens) (UniProt Q14749); conditions: purified enzyme, MTase-Glo SAH luminescence; measured here: GNMT inhibition; at 40 µM; stronger effect = lower value
In short: as §1

[5] = molecular target: Histamine N-methyltransferase (Homo sapiens) (UniProt P50135); conditions: purified enzyme, MTase-Glo SAH luminescence; measured here: HNMT inhibition; at 40 µM; stronger effect = lower value
In short: as §1
% is scaled to controls: 0 for no effect and ±100 for the full control effect.

Compound | activity change, negative = inhibition [1] | activity change, negative = inhibition [2] | activity change, negative = inhibition [3] | activity change, negative = inhibition [4] | activity change, negative = inhibition [5]
CN[C@H]1CCN(C(=O)c2ccc(Nc3ncc(F)c(-c4cnc(C)n4C(C)C)n3)cc2)C1 | 6.53% | -16.8% | 2.86% | – | –
Cc1ccc([C@H]2Nc3ccc(S(=O)(=O)Nc4ccc(C)c(Cl)c4)cc3[C@H]3C=CC[C@H]32)cc1 | -5.09% | -15.5% | -15.4% | -11.2% | -14.9%
C[C@]12C=C[C@@]3(CCC4[C@](C)(CO)CCC[C@@]4(C)C3CC1)C2 (stereo partly drawn) | -7.1% | -13.8% | -14.2% | -2.21% | 3.74%
COc1cc(CN2CCN(c3ccc(C#N)cn3)CC2CCO)cc(OC)c1 (stereo not drawn) | -6.62% | -21.1% | -3.93% | -7.32% | -3.12%
CCn1c(=O)n(CC)c2cc(S(=O)(=O)N3CCN(c4ccc(F)cc4)CC3)ccc21 | 0% | -5.55% | 3.25% | 2.29% | 1.43%
COc1ccc(NC(=O)Cn2nc3nc(Nc4ccc(F)cc4)ccn3c2=O)cc1Cl | 0% | -0.684% | 1.59% | -7.27% | 0.697%
CC(C)(C)c1cc2n(n1)CC(C)(C(=O)NC1CCCCC1)N(Cc1ccc(F)cc1)C2=O (stereo not drawn) | -0.245% | -1.01% | -2.08% | -8.19% | -1.57%
CC1CCC2C(C)(C)C(O)CCC2(C)C12Cc1c(O)cc3c(c1O2)CN(C(CCCN=C(N)N)C(=O)O)C3=O (stereo not drawn) | -2.92% | -11.4% | -3.02% | -1.01% | 11.5%
CCCn1c(=O)c2ccc(C(=O)NC3CCCC3)cc2n2c(=O)n(CC(=O)NC(C)CC)nc12 (stereo not drawn) | 1.52% | -3.39% | -1.97% | 2.02% | 4.37%
Cc1cccc(OCC(=O)c2ccc3c(c2)N(C(C)C(=O)N2CCOCC2)C(=O)CO3)c1C (stereo not drawn) | -3.51% | -7.54% | -0.355% | -3.88% | -3.45%
Cc1ccc(Cc2nn3c(SCC(=O)NC4CCCCC4)nnc3[nH]c2=O)cc1 | 3.96% | 0.963% | 4.47% | 13.3% | 8.85%
Clc1ccc(C2Nc3ccc(Br)cc3C3C=CCC32)cc1 (stereo not drawn) | -5.79% | -15% | -6.81% | -10.9% | -9.47%
O=S(=O)(NCCn1cnc2ccccc21)c1cccc(Cl)c1 | -0.099% | -1.05% | 0.164% | -3.71% | -3.29%
CC(C)CCNC(=O)C1(C)Cn2c(cc3ccccc32)C(=O)N1c1ccc(Cl)cc1 (stereo not drawn) | 3.45% | 8.32% | 1.24% | 4.45% | 6.14%
Cn1c(=O)c2ccc(C(=O)NC3CCCCC3)cc2n2c(=O)n(Cc3ccccc3)nc12 | 0.907% | -7.54% | -3.71% | -1.69% | 2.44%
COc1cc(OC)cc(N2C(=O)c3cc(-c4ccccc4)nn3CC2(C)C(=O)NCc2ccccc2OC)c1 (stereo not drawn) | -0.775% | -3.25% | -1.35% | -2.02% | 2.26%
CC[C@@](C)(Nc1ccnc(-c2c[nH]c3ncccc23)n1)C(=O)NCC(F)(F)F | 1.44% | -12.9% | -4.4% | -9.91% | -3.21%
CCN1C(=O)c2c(C(=O)NCCc3ccc(OC)cc3OC)ncn2CC1(C)C(=O)NC1CCCC1 (stereo not drawn) | 0% | -4.74% | 2.27% | -3.19% | 4.77%
CCN1C(=O)C2CC3(CCN(C(=O)c4cc(C)n(CCOC)c4C)CC3)CN2C1=O (stereo not drawn) | -7.83% | -5.79% | 0.138% | -2.13% | 0.366%
O=C(CN1CC2CC(C1)[C@H]1CCCC(=O)N1C2)N1CCN(c2ccc(Cl)cc2)CC1 (stereo partly drawn) | 1.98% | -3.28% | 6.63% | -4.64% | -1.01%
CN1CCN(C2Cc3ccccc3Sc3ccc(Cl)cc32)CC1 (stereo not drawn) | 12.7% | -34.6% | -2.72% | 10.3% | -19.4%
c1cc2c(cc1CN1CCOCC1)CNCCO2 | 3.43% | -4.13% | 13.9% | -0.092% | 1.22%
CC(C)CCNc1nc2c(-c3ccc(Cl)cc3)nnn2c2ccccc12 | 3.22% | -8.44% | -4.13% | -1.98% | -1.86%
CC1(C)CCC[C@@]2(C)C1[C@H](OC(=O)/C=C/C=C/C(=O)O)C=C1COC(=O)[C@@]12O (stereo partly drawn) | 7.91% | -3.68% | 5.97% | 4.09% | 12.4%
COc1cc(/C=C/C(=O)O[C@H]2[C@H](O)[C@@H](CO)O[C@@]2(CO)O[C@H]2O[C@H](CO)[C@@H](O)[C@H](O)[C@H]2O)ccc1O | 4.57% | -7.93% | 6.04% | 0% | 1.68%
C=C(C)[C@@H]1CC[C@](C)(O)[C@@H](OC(=O)c2ccccc2)C1 | -5.29% | -20.1% | -1.32% | -2.17% | 8.25%
CC1=CCC2C(C)(CO)CCCC2(CO)C1CO (stereo not drawn) | 1.57% | -10.7% | 3.88% | -0.017% | 4.57%
COc1ccc(CN2C(=O)c3cc4sccc4n3CC2(C)C(=O)NC2CCC(C)CC2)cc1 (stereo not drawn) | 0.597% | -1.17% | -0.62% | 1.33% | 0.498%
CC(C)NC(=O)[C@@H]1C[C@@H](N)CN1C(=O)c1cccc2ccccc12 | -6.55% | -4.08% | -5.88% | -2.66% | -3.05%
